Test results published in PMC10668032.
The other results are listed elsewhere or left out. At the low end of the ranking, values are background and their order means little.

The sequences below were run against SIX1 homeodomain (reference allele) (UniProt Q15475) (assay: universal protein binding microarray). Settings: Universal all-10-mer PBM (8x60K, AMADID 030236), 300 nM GST-tagged protein, Alexa Fluor 488 anti-GST; buffer, salt, pH and temperature not stated; high values mean tight binding; most listed sequences are background and not binding sites; double strand, one strand shown.

Sequence | binding signal [E-score]
GAGAAAGC | -0.0983
CAGACGGC | -0.0992
ACAACAGC | -0.183
CCATCGCG | 0.016
GTCCTTAA | -0.0848
CGAAAACC | -0.0724
AGCTTCTA | -0.102
TGCCAGAA | -0.0959
AAATTGAG | -0.106
GATTAAAA | 0.109
ACTGGGGG | -0.0792
AGTGCATG | 0.0879
CTGACATC | -0.0778
ACCAAACG | -0.271
TACGGAGA | 0.054
AGAGCATA | -0.0854
CATTCAGC | -0.164
ATGCGGCA | -0.151
GGAGCAAC | -0.241
ATTCCTCA | -0.111
CTTACAGA | -0.215
CTGGGGAA | -0.269
CAGCATGC | -0.281
CCCCCCTA | 0.0367
ACTTACTG | -0.0208

Sequence | binding signal [E-score]
CATAGTGA | 0.0324
ATATAGAT | 0.287
AAGTGTTC | -0.254
GCAGAGCA | -0.249
GCGACATA | -0.0864
CCGAGGCG | 0.039
TGCACACA | -0.122
CCATCGGG | 0.0998
GCAGCCAC | -0.269
CACTCGGG | -0.0465
AAACTGGG | -0.243
AATCAGAA | -0.219
AGACTGGA | -0.0543
GCCAAAGC | -0.231
ATGTCGGG | -0.031
CAGACACC | 0.291
AATTAGGA | -0.108
CCGCACCA | -0.0521
ACAACTCC | -0.147
CAACTACA | 0.0485
GCTAATCC | 0.208
GAGTAACC | -0.00546
GTCAGTGA | 0.0038
AATCTTCT | -0.0563
CCGCCACA | -0.136

Sequence | binding signal [E-score]
GGTAACAC | 0.0196
CTTTGGTC | -0.0976
GTTAGATA | 0.248
AGACGTGA | -0.185
CGACAAGC | -0.116
TCAGCTCA | 0.162
ATTGTATA | 0.308
TCCTTTCA | -0.207
GAGTGCTA | 0.0175
AAGCAACC | -0.0903
AATGACGA | -0.00169
AACCTCCT | -0.135
GAACGCAA | 0.00529
ACTGTCAG | -0.171
AATCGCAT | 0.0704
GCGACGCC | -0.157
GAGAGCGC | 0.087
CGGAATGC | -0.24
CCAATGTA | -0.0376
CGTTCCAC | -0.0892
CCCCCAAA | -0.218
ATGCCCTA | -0.0897
TGTTTTAA | -0.274
TCATGGAA | -0.166
ACAACCAT | -0.101

Sequence | binding signal [E-score]
CCCTTAAG | 0.00061
ATGAAGCA | -0.0687
GAGACAGC | -0.0475
GCCGTCGA | -0.0394
GGGGGACC | -0.286
AGAAGATA | 0.201
CCACATTC | -0.16
GCCACCCC | 0.0641
ACAACGGA | 0.0872
CCCATAGG | 0.0598
TAATTCTA | 0.0669
AACAGAGT | -0.258
GATGGTCC | -0.234
AGCCCTTA | -0.24
ACGGCGCC | -0.249
ACCACCCT | -0.0732
ATCTGGCC | 0.181
AGCGGTTC | -0.262
AGCCAACG | -0.261
TTCTTAAA | -0.0269
CCTAATAC | 0.254
ACACCCCT | 0.327
TTAGCGAA | -0.196
ATATAAGG | 0.189
GAAGCGGC | -0.0272

Sequence | binding signal [E-score]
ATTCAAGC | -0.0462
GTCGGCAC | -0.218
GGGTTGAC | -0.156
AATGAAAT | -0.254
CCTTGAGA | 0.128
GCCTTAGC | -0.177
ACTGCGGA | 0.0276
GCGCCAAA | -0.147
GCTACAAA | -0.0861
ACCCTCGT | 0.0137
TAGGTACA | -0.168
CGAGCAAG | -0.248
ACTCAGAG | -0.0934
TCCGGCGA | 0.135
CTGGGCAA | -0.156
GGCTGCAA | 0.0317
CGACTCCG | -0.24
AATGGCAG | -0.268
AGTATAGC | 0.129
CACTATAG | 0.101
AGGAAATG | -0.142
GCTCTGGA | -0.00988
GACCCAAA | -0.176
CCTCACCC | -0.131
GCCCGACC | 0.00164

Sequence | binding signal [E-score]
CAAGGTGA | -0.0241
AACCAATA | 0.128
AGACGTAA | -0.127
GGCCGATA | 0.291
GCCAAACC | -0.0893
CAATTGGG | -0.137
AACTAAGG | -0.155
AGACGTGG | 0.034
AGGAAGAT | 0.158
ATAAATTC | -0.104
AATGACTA | -0.199
GCCCGAAC | -0.359
CTCCAGAA | 0.00752
ACGACACT | 0.0592
ACATAATG | -0.0955
CAACCGTC | -0.249
TCGTCCAA | -0.171
CATAAGCA | -0.0887
GCGGCTTA | -0.214
AGTGTTGC | -0.235
ACTACGCC | -0.254
CAAATTAC | -0.138
AGTGTCCG | 0.0243
AGAGAACG | -0.0614
CCCATCAG | -0.023

Sequence | binding signal [E-score]
CCGCTGCC | -0.154
ATACCGTC | 0.396
CTACCGTA | 0.0158
CCAAGAGC | 0.019
ACCAATGC | -0.147
AACGAGAG | 0.112
AGTTGAGG | -0.125
ATCGCTGA | 0.226
AACCCTCT | -0.271
AACAGTGG | -0.122
CCTAGGCA | -0.122
CGAAAGTC | -0.141
AGGGACCC | -0.23
CTGAAGGA | -0.172
CGACAGCG | -0.229
TAGTTGGA | 0.0826
CGAGGGTA | 0.159
CCAGCTAG | 0.0693
GTATAAAC | 0.185
ACTCCGAG | 0.0884
GACGCGAC | -0.0517
AGTGTAGC | -0.0419
CGTACATA | 0.021
ATTGCTGC | -0.149
CAGACTTC | -0.328

Sequence | binding signal [E-score]
AATTGGCG | -0.164
CGGACGAA | 0.0369
CGAGCGGC | -0.213
GCATTGAA | -0.137
CCGCTCCC | -0.132
CGTCCCGA | -0.197
CACCCCCA | 0.171
GTTCCAAA | -0.162
ATTACTGA | 0.127
CATCTGGA | 0.188
GACCAAGA | -0.0376
CAATATGG | 0.225
CTCGCAAC | -0.0352
CAACCCAA | 0.00694
AATGCTGT | -0.208
ATGGACGG | 0.0653
CGAAAGGA | -0.0136
GTTCCGAA | -0.154
GCTCCAAA | -0.303
AAATATAA | -0.132
CGATCCCG | 0.332
CAGCTATG | -0.0902
GTAAATCA | -0.138
CTGGTATC | 0.45
GCGAAAGA | -0.231

Sequence | binding signal [E-score]
AAAGGAGT | -0.158
CGTGGGAC | -0.126
AAGAACGC | -0.138
TGAACCAA | -0.0993
GGCAGTCA | -0.161
CTCCCCCC | -0.131
GGATGCCA | 0.102
GTTCCGTA | -0.0109
GGCGCTAC | -0.268
AAGGTAGC | -0.163
AGCTTACC | -0.0453
ATCCGCGA | 0.259
ACACCTCG | 0.301
CTAATTTA | -0.16
AGAAAATG | -0.196
ACACACCC | 0.0977
CCCAGTAC | -0.041
ACCTGGTA | -0.0609
ATTACAAA | -0.0962
TCGACGAA | -0.141
AATTGCAA | -0.25
ACCTGCAC | -0.13
CAATCCTA | 0.0477
AATCTCGG | 0.0417
CGGTAGAC | -0.0586

Sequence | binding signal [E-score]
CTATACAC | 0.255
GGCCACCA | -0.123
ATGCATTG | -0.0834
GATAGGAA | 0.114
AAAAGCCC | -0.315
CGGAAAAC | -0.227
GGCTGAAA | -0.0765
GAAGAGGA | -0.211
ACATATTC | 0.0898
AGGGAAGG | -0.0483
AAACTTCT | -0.258
AGCTCACC | 0.00873
CAGAGAGC | -0.142
AGCGAGTA | 0.0653
CAGCCGGG | -0.0367
AAGGTAAT | -0.0709
GGTATAAA | 0.286
AAGTCTCT | -0.333
ATTTTCTA | -0.15
AGTTGGCA | -0.225
TCCTCTCA | 0.0399
CTCTTGCA | -0.0132
AACGGATT | 0.204
CACGCTGA | -0.047
ACCTTAAT | 0.152

Sequence | binding signal [E-score]
ATACTAAG | 0.209
CAAGCTTG | -0.359
AGAACAAT | 0.0539
CCGGGTAA | 0.113
AACATCTA | -0.142
GTCGTCAA | -0.044
AAGCTGGC | -0.171
AAAGAGAC | 0.0298
CCATTGCG | -0.00545
AGTCTGCG | -0.187
AGGGATGC | -0.0623
TCGCCGAA | -0.0857
CTAATCTC | 0.175
ACGGAGTA | 0.101
ATGGTGCG | -0.167
CGTTGTGC | -0.0905
GTTGCAGA | -0.102
GAGTAAGA | -0.008
AGGGAAGA | -0.154
CCAACATA | 0.134
AGGTATCG | 0.478
CCCTGGGC | -0.16
CCAATACA | 0.0364
CTGCGCGA | 0.0419
GCGAACTA | 0.0727

Sequence | binding signal [E-score]
CTAAGCTC | -0.123
CGCTAATA | -0.0101
AGAGGAAT | 0.0744
TAAGATAA | 0.0806
CGGGGTAA | 0.128
GAGCCACC | 0.041
GTGGGCCA | -0.215
AATTGCTA | 0.0458
ACTCGATA | 0.303
AAGTAACT | -0.298
GACTCGAA | -0.108
CTTCTCGC | 0.136
AATAAGTG | -0.0784
CACCACAA | 0.0182
AGAGACTA | -0.217
CGCACGCG | -0.22
AGACTCTG | 0.0115
AATGGCCT | -0.22
GTCAACCA | -0.261
CCTAATGC | -0.07
GCCTCGGA | -0.0286
TGTCCACA | -0.033
CCTATGAA | -0.059
GTGGACTA | 0.0435
CAGATTGC | -0.11

Sequence | binding signal [E-score]
ACCTGAAC | -0.162
GTCAGAGA | -0.0691
ACCGCCAA | -0.0246
TGATGACA | -0.0474
GATTTAGA | 0.0717
TCCTACAA | 0.0631
CTACTAAC | 0.0528
CTACAATA | 0.241
TAAAGGGA | -0.0716
GCAACTAC | -0.183
TTACCGAA | -0.0115
ACGCTAGA | -0.0662
GCACGTGC | -0.183
CGGTCTGC | -0.105
CATTGGTA | -0.0532
GACCCGTA | 0.0888
ATTGTGCA | -0.0103
CATTAGCC | -0.135
CCTTCACG | 0.0243
CCAATCAG | -0.145
AGGCCGAA | -0.177
GCGTTAAC | -0.0738
CGAGGCCG | -0.183
ATGGATTC | 0.0729
GGCTTACC | -0.0836

Sequence | binding signal [E-score]
ACCTTCAC | 0.101
ATATATTC | 0.279
CCTCGTCG | -0.0556
CATTTGAC | -0.212
GCAGCGCA | -0.141
ATTATCGC | 0.148
CGCACTCC | -0.219
ACGGCGGA | -0.069
CGGAGCCA | -0.0825
GACAGGCA | -0.176
CAGTATTA | 0.295
ATAATTCG | 0.0379
CAGTCAGC | -0.152
CCCGCAAG | -0.167
ATAACCGG | 0.0341
ACGTATTG | 0.211
TATGCCAA | 0.166
ATCATTAA | 0.228
CCGCTATC | 0.304
